The campaign covered roughly 320,000 compounds. About 200 (0.062%) were called active. Inconclusive results, whose numbers are uncertain, are shown with a selection of clear calls. Calls come from the whole dose curve; as a rule, active = well fitted activation curve with a large enough effect; inconclusive = small, poorly fitted or top-dose-only effect; inactive = no such curve, though single readings can be large or run the other way. No potency is given beside an inconclusive call; the fits are too rough.
Test: qHTS assay for re-activators of p53 using a Luc reporter; note: nearly all actives have a fitted effect of over 45% in size; for activity change, positive = activation: % of control where 0% means no effect
Settings: H1299 p53-A138V BP100-luciferase reporter, luminescence, 24 h; series mostly up to 92.2 µM; activity change, positive = activation: at the top concentration
Procedure, shortened: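 H1299 (p53-null), stable ts p53-A138V + BP100-Luc; 1000 cells/well, Opti-MEM/10% FBS; cpd 4 pt, 1:5; 24 h, 37 deg C, 5% CO2; detection reagent 10 min RT; luminescence.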
Potency is the fitted concentration of half-maximal effect; tags give direction and shape of the fitted curve.

With `N#Cc1c(Nc2ccccc2)s[nH]c1=O` as the molecule, how does the “activity change, positive = activation” value read?
The value was inactive: 26%.

Which “activity change, positive = activation” value does the source give for `CCC(C)NCC(=O)Nc1ccc(-c2nc3cc(NC(=O)CNC(C)CC)ccc3o2)cc1` (centres undefined) here?
The value was inactive: 14.5%.

Which Potency does the source give for `Nc1ccc2nc(-c3ccccn3)[nH]c2c1` here?
The Potency was inconclusive [activator, partial curve, poor fit].

Which Potency does the source give for `COc1ccc(-c2cnc3c(-c4ccc(F)cc4)cnn3c2N)cc1` here?
The Potency was inconclusive [activator, full curve, poor fit].

With `Cc1ccc2cc(/C=N/NC(=O)[C@H]3C[C@@H]3c3ccccc3)c(Cl)nc2c1` as the molecule, how does the Potency read?
Its Potency is inconclusive [activator, single point].

Which Potency does the source give for `O=C(COc1ccccc1Cl)Nc1ccc2c(c1)OCO2` here?
Its Potency is inconclusive [activator, full curve, poor fit].

Which Potency does the source give for `CCCCC(=O)Nc1ccc2oc(-c3cccnc3)nc2c1` here?
Its Potency is inconclusive [activator, single point].

For `O=C(Oc1ccc2ccccc2c1Br)N1CCCCCC1`, which Potency is on record?
The Potency was inconclusive [activator, partial curve, poor fit].

With `CCC1CCCCN1C(=O)c1cc(-c2ccc(Cl)c(Cl)c2)on1` (centres undefined) as the molecule, how does the Potency read?
Its Potency is inconclusive [activator, partial curve, poor fit].

With `Cc1nnc(Sc2nc3ccccc3o2)c2ccccc12` as the molecule, how does the “activity change, positive = activation” value read?
Its value is inactive: -20.2%.

For `Nc1ccc(NC(=O)c2cccs2)c(Cl)c1`, which Potency is on record?
Its Potency is inconclusive [activator, partial curve, poor fit].

For `O=C(c1ccc(S(=O)(=O)Nc2ccccc2F)cc1)N1CCCC1`, which “activity change, positive = activation” value is on record?
Its value is inactive: -8.66%.

With `CCN(c1ccc(NC(=O)COC(=O)c2ccc([N+](=O)[O-])o2)cc1)C(C)C` as the molecule, how does the Potency read?
The Potency was inconclusive [activator, partial curve, poor fit].

Which Potency does the source give for `Cc1ccc(-n2nnc3ccccc3c2=O)cc1C` here?
Its Potency is inconclusive [activator, partial curve, poor fit].

With `CCSc1ncnc2c1oc1ccccc12` as the molecule, how does the Potency read?
The Potency was inconclusive [activator, single point].

For `COc1ccccc1NC(=O)c1cc2ccccc2o1`, which Potency is on record?
The Potency was inconclusive [activator, partial curve, poor fit].

With `COc1ccc(CCN(/C=C2\Sc3ccccc3C2=O)C(C)=O)cc1OC` as the molecule, how does the “activity change, positive = activation” value read?
Its value is inactive: 6.86%.

For `Nc1cc(Cl)ccc1C(=O)OCC(=O)N1CCCC1`, which Potency is on record?
The Potency was inconclusive [activator, partial curve, poor fit].

With `COc1ccc(C(=O)Nc2cc(OC)nc(OC)n2)cc1` as the molecule, how does the Potency read?
Its Potency is inconclusive [activator, full curve, poor fit].

Source: PubChem BioAssay AID504706 (National Center for Advancing Translational Sciences (NCATS), 2011)
